Screen size: about 48,000 compounds; about 120 (0.25%) were called active. About 4% were inconclusive and are not listed. Calls follow the shape of the dose curve; as a rule, active = well fitted activation curve with a large enough effect; inconclusive = small, poorly fitted or top-dose-only effect, or another doubt; inactive = no such curve, though single readings can be large or run the other way. This is one part of the list.
assay: Primary qHTS for Identification of Small Molecule Activators of Huntingtin-Antisense Promoter Activity; conditions: HEK293 HTT-AS promoter firefly luciferase reporter, 24 h; series mostly up to 57.5 µM; activity change, positive = activation: at the top concentration; also: nearly all actives have a fitted effect of over 55% in size
Procedure, shortened: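 HEK293 luciferase promoter-reporter cells (2,500/well) plated 24 h, then compounds added at up to 57.5 uM final for 24 h at 37 °C. Firefly luminescence by Dual-Glo, normalized to vehicle (0%) and zero RLU (-100%).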

Activity change, positive = activation, inactive:
Cc1nc(-c2ccc(F)cc2)sc1CCNC(=O)c1ccc(OC(C)C)cc1 -28.3%, CCN1CCN(C(=O)c2ccc3c(c2)N(Cc2ccccc2)C(=O)c2ccccc2S3(=O)=O)CC1 -7.88%, CCOc1ccc(-c2cn3c(n2)sc2cc(C(=O)N4CCCC(C)C4)ccc23)cc1 (centres undefined) 2.84%, CCCN1CCN(CCCNC(=O)c2ccc3c(c2)sc2nc(-c4ccc(OCC)cc4)cn23)CC1 -3.81%, Cc1nc(N2CCOCC2)c2c(C(=O)N(C)c3ccccc3)c(C)oc2n1 -5.49%, CC(C)Cc1nn2c(=O)cc(COC(=O)c3cccc(NS(C)(=O)=O)c3)nc2s1 5.29%, Cc1cc(C)cc(OCC(=O)N(Cc2ccc(Cl)cc2)C2CCS(=O)(=O)C2)c1 (centres undefined) -15.3%, COc1ccccc1CNC(=O)C1CCN(C2=NS(=O)(=O)C(c3ccc(C)c(C)c3)=C2C)CC1 -37.5%, Cc1ccccc1CNC(=O)C(=O)NCC(c1ccc2c(c1)OCO2)N1CCOCC1 (centres undefined) -16%, CN(CCCNC(=O)Cn1ncc2c([nH]c3ccccc32)c1=O)Cc1ccccc1 -20.5%, Cc1ccc2c(c1)-c1c(cnn1CC(=O)N1CCN(c3cc(C)ccc3C)CC1)CO2 -10.5%, Cc1ccccc1S(=O)(=O)Cc1ccc(C(=O)NCCc2ccccc2)o1 19.5%, CC1CCN(c2csc3ccc(F)cc3c2=O)CC1 24.7%, O=C(NCc1ccc(Cl)cc1)c1ccc(CNS(=O)(=O)c2ccc(F)cc2)cc1 -9.98%, CC(C)N1CCc2c(sc(NC(=O)c3ccc(S(=O)(=O)N(C)C4CCCCC4)cc3)c2C(N)=O)C1 -19.4%, COCCc1nn2c(=O)cc(COC(=O)c3ccco3)nc2s1 10.6%, Cc1cccc(-c2nc(CS(=O)CC(=O)NCc3ccc(Cl)cc3)c(C)o2)c1 (centres undefined) -13.5%, O=C1CN(C(=O)c2ccc(S(=O)(=O)N3CCCCC3)cc2)C(c2ccc(F)cc2)c2cc(Cl)ccc2N1 (centres undefined) -22.3%, O=C(NCCc1ccccc1)c1ccc(CSc2nc3cccnc3n2Cc2ccccc2F)cc1 -5.5%, CCN(CC)CCn1c(=N)n(CCOc2ccccc2Cl)c2ccccc21 -24.7%, CCOC(=O)C(=O)CCc1ccccc1 1.66%, COc1cccc(-c2cn3c(n2)sc2cc(C(=O)NCc4ccccc4F)ccc23)c1 29.7%, CCOC(=O)c1cc(-c2ccccc2)n(CC(=O)NCc2ccc(C)cc2)c1C -13.8%, Cc1ccc2nc(-c3cccc(NC(=O)c4cccc5c(Cl)cccc45)c3)oc2c1 16.9%, CCOC(=O)c1c(C)oc2nc(C)nc(NCC3CCN(Cc4ccccc4C)CC3)c12 -6.9%, O=C(NCC(c1cccnc1)N1CCOCC1)C(=O)Nc1ccc(Cl)cc1 (centres undefined) -9.87%, COc1ccc(-c2[nH]ncc2C(=O)NCc2cccc(Cl)c2)cc1 -17.6%, COc1ccc(CNC(=O)CCCN2C(=O)CCn3nc(-c4cn(C)c5ccccc45)cc32)cc1 -28.3%, Cc1c(Cl)cccc1NC(=O)CSc1nc(=O)[nH]c2c1CCCC2 -26.3%, O=C(NCCC1=CCCCC1)C1CCN(C(=O)N2CCOc3ccccc32)CC1 -19.6%, COc1ccc(OC)c(NC(=O)Cn2ncc3c2-c2ccccc2OC3)c1 -22.3%, O=C(NCCc1ccc(Cl)cc1)C1(c2cccs2)CCOCC1 -22.1%, Cc1ccc(-n2c(=O)c3cccnc3n2CC(=O)Nc2ccc(C)cc2Cl)cc1 -7.27%, CC(=O)Nc1ccc(NC(=O)CSc2cn(CC(=O)N(C(C)C)C(C)C)c3ccccc23)cc1 -10.8%, Cc1ccc(-c2noc(CN(C3CCCCC3)S(=O)(=O)c3ccc(F)cc3)n2)cc1 -30.7%, Cc1cc2oc(C(=O)NCCc3ccc(S(N)(=O)=O)cc3)cc(=O)c2cc1C -9.56%, COc1cc(C(=O)NCc2nnnn2-c2ccc(C)c(C)c2)cc(OC)c1OC -5.92%, COc1ccc(OCCn2cc(C(=O)c3ccco3)c3ccccc32)cc1 -24.6%, CCC(=O)N1CCc2cc(S(=O)(=O)NC(Cc3ccccc3)C(=O)NCc3ccc(C)cc3)ccc21 (centres undefined) -10%, CCOc1ccccc1CN1C(=O)c2ccccc2C1C(=O)NC1CCCCCC1 (centres undefined) -25.5%, COC(=O)c1cc2occc2n1Cc1nc(-c2ccccc2C)oc1C 16.3%, CC(C)c1ccc(NC(=O)CSC2=Nc3ccccc3C3=NC(CCC(=O)NCc4ccc(F)cc4)C(=O)N23)cc1 (centres undefined) -38.2%, CCC(C)Sc1nc2c([nH]c3ccccc32)c(=O)n1C (centres undefined) -11.7%, Cc1ccccc1COC(=O)c1ccc(-c2nnn(Cc3ccccc3F)n2)cc1 10.2%, CCN1CCN(C(=O)c2ccc3c(c2)N(Cc2c(F)cccc2Cl)C(=O)c2ccccc2S3)CC1 -16.7%, O=c1c(-c2cc(-c3ccc(F)cc3)nc3c2COc2ccc(Cl)cc2-3)coc2ccc(F)cc12 -3.42%, CC(=O)N1c2ccc(S(=O)(=O)N3CCN(c4cc(Cl)ccc4C)CC3)cc2CC1C (centres undefined) -5.03%, C#C[C@]1(O)CC[C@H]2[C@@H]3CCC4=Cc5oncc5C[C@]4(C)[C@H]3CC[C@@]21C -33.7%, COc1ccc(CNc2nc(-c3ccco3)nn2S(=O)(=O)c2ccc3ccccc3c2)cc1OC -19.5%, Cc1ccc(C)c(NC(=O)Cn2c(=O)n(Cc3nc(C)no3)c(=O)c3cc4c(cc32)OCO4)c1 -8.68%, CCc1ccc(NC(=O)Cn2c(=O)n(Cc3ccc4c(c3)OCO4)c(=O)c3oc4ccccc4c32)cc1 -31.6%, CCOC(=O)CNC(=O)CC(c1cc(OC)c(OC)c(OC)c1)N1Cc2ccccc2C1=O (centres undefined) -6.79%, CC(=O)SCC(CC(=O)c1ccc(C)cc1)C(=O)O (centres undefined) 16.3%, CCOC(=O)c1ccc(NC(=O)CCn2c(=O)oc3ccccc32)cc1 -17.2%, CCN(CC)c1ccc(C(=O)Nc2ccc3nc(N(CC)CC)cc(C)c3c2)cc1 -30.9%, Cc1ccc2[nH]c(CSc3nnc(NC(=O)COc4ccccc4Cl)s3)cc(=O)c2c1 -19.1%, CN(Cc1ccccc1)C(=O)Cn1c(=O)c2cccn2c2ccc(F)cc21 8.41%, CCc1ccc(NC(=O)C2CCCN(S(=O)(=O)c3cccc4cccnc34)C2)cc1 (centres undefined) -19.5%, Cc1ccc(CNC(=O)c2sc3ncnc(N(C)C4CCCCC4)c3c2C)cc1 -27.3%, O=S(=O)(NCC(c1ccco1)N1CCOCC1)c1ccc(Cl)cc1 (centres undefined) -10.6%, Cc1ccccc1NC(=O)C1CCN(S(=O)(=O)c2ccccc2)CC1 -18.3%, O=C(CCCCCn1c(=O)[nH]c2ccccc2c1=O)N1CCN(c2ccc(Cl)cc2)CC1 -0.343%, COC(=O)c1ccc(CNC(=O)c2nc(Cn3nc(C)c(Br)c3C)no2)cc1 -17%, COc1cc2c(cc1OC)C(COc1cc(C)cc(C)c1)N(C(=O)c1ccc(S(=O)(=O)N3CCCC3)cc1)CC2 (centres undefined) -18.4%, O=C(CSc1nc2c([nH]c3ccccc32)c(=O)n1-c1cccc(Cl)c1)NCc1ccccc1 -32.9%, CCc1nnc(NC(=O)CSc2nc3c([nH]c4ccccc43)c(=O)n2-c2ccc(C)cc2)s1 -25.6%, CCc1nc2ccc(C(=O)N3CCN(c4cccc(OC)c4)CC3)cc2nc1CC -4.74%, Cc1ccc(C)c(-c2ccc(=O)n(Cc3ccc(F)cc3Cl)n2)c1 -39.1%, CCOC(=O)C1CCCN(C(=O)Cn2ncc3c4ccccc4n(Cc4ccc(F)cc4)c3c2=O)C1 (centres undefined) -16.4%, O=C(COc1ccccc1)Nc1sc2c(c1C(=O)Nc1ccccc1)CCCCC2 10.3%, CN(C)N=Nc1nc[nH]c1C(N)=O -16.3%, CCN(CC)S(=O)(=O)c1ccc2c(c1)N(CC(=O)NCc1ccc(F)cc1)C(=O)CO2 -10.2%, Cc1cc(N2CCN(c3cccc(C(F)(F)F)c3)CC2)n2nc(-c3ccccc3C)nc2n1 1.3%, Cc1ccc2oc(=O)c3cnn(CC(=O)N4CCN(c5cccc(C(F)(F)F)c5)CC4)c3c2c1 -0.464%, CCC(C)NC(=O)CSc1nc2c(sc3ccccc32)c(=O)n1CCc1ccccc1 (centres undefined) -5.24%, O=S(=O)(c1cccc(C(F)(F)F)c1)N1CCC(Oc2ccc(-n3cnnn3)cc2)CC1 -47.1%, COc1ccc(NC(=O)C2=C(C)Nc3c(C(=O)Nc4ccc(C)cc4)cnn3C2c2cc(OC)ccc2OC)cc1 (centres undefined) -2.63%, COc1cccc(NC(=O)Cn2c(=O)n(Cc3ccccc3)c(=O)c3c2c2cc(C)ccc2n3C)c1 -4.95%, O=C(Nc1ccc([N+](=O)[O-])cc1Cl)c1cc(Cl)ccc1O -88.8%, O=C(Nc1cccnc1)N1CCC(Cc2cccc(Oc3ccc(C(F)(F)F)cn3)c2)CC1 -77.9%, CCCN1CCc2nc(SCC(=O)Nc3ccc(C)c(Cl)c3)[nH]c(=O)c2C1 13%, CN(C)c1ccc(C2CC(c3c(O)n(C4CCCCC4)c(=O)[nH]c3=O)=Nc3ccccc3S2)cc1 (centres undefined) -61.7%, O=C(Nc1ccccc1C(F)(F)F)Nc1c[nH]c(=O)[nH]c1=O -1.47%, COc1ccc(Nc2c(-c3ccco3)nc3cccc(C)n23)cc1 -19.3%, CCN(CC)CC(=O)Nc1c(C)cccc1C(=O)OC -9.53%, Cc1ccc2c(C)c(C(=O)N3CCC(c4nc5ccccc5s4)CC3)oc2c1C 6.98% [at 11.5 µM, percent change from vehicle, -100% = no light], COc1cc(OC)c(OC)cc1CN1CCc2nc(N3CCN(c4ccccc4F)CC3)ncc2C1 -44.2%, COc1ccc(C2C=C(c3ccccc3)Nc3nc(NS(=O)(=O)c4ccc(C)cc4)nn32)cc1 (centres undefined) -12.7%, Cc1c(C(=O)OC2CCCCC2)[nH]c2c1C(=O)CC(c1ccccc1)C2 (centres undefined) -23.4%, Cc1ccc(OCC(=O)N(Cc2ccc(Cl)cc2)CC2CCCO2)cc1C (centres undefined) -28.1%, Cc1cc(F)ccc1NC(=O)C(C(C)C)N1Cc2ccccc2C1=O (centres undefined) 1.8%, COc1ccccc1NC(=O)c1nnn(-c2ccc(F)cc2)c1C -3.12%, COc1ccc(CNC(=O)c2ccc3c(c2)N(Cc2ccccc2)C(=O)c2ccccc2S3=O)cc1 (centres undefined) -15.5%, CC(=O)Nc1ccc(S(=O)(=O)NC2=NCN(C(C)C)CN2)cc1 -13.9%

Source: PubChem BioAssay AID1508624 (National Center for Advancing Translational Sciences (NCATS), 2021)
